# The list shows a part of the results.
# Experiments:
# Experiment in all cases: glycan array binding signal (z-score within array); higher = stronger binding
# Conditions in all cases: glycan notation: IUPAC condensed, linker removed
# [1] = biological target: Neu5Ac(a2-3)Gal(b1-4)[Fuc(a1-3)]GlcNAc
# Procedure, shortened: (§1)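 Columns mapping to the same glycan were averaged after glycan names were converted to IUPAC-condensed notation. The data come from 3228 arrays in the Consortium for Functional Glycomics database, limited to those with an available protein sequence. Binding is reported as a within-array Z-score averaged across arrays of one protein sequence and across linkers.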
# [2] = biological target: Neu5Ac(a2-3)Gal(b1-4)[Fuc(a1-3)]GlcNAc(b1-3)Gal
# Procedure, shortened: as §1
# [3] = biological target: Neu5Ac(a2-3)Gal(b1-4)[Fuc(a1-3)]GlcNAc(b1-3)Gal(b1-4)GlcNAc
# Procedure, shortened: as §1
# [4] = biological target: Neu5Ac(a2-3)Gal(b1-4)[Fuc(a1-3)]GlcNAc(b1-3)Gal(b1-4)[Fuc(a1-3)]GlcNAc(b1-3)Gal(b1-4)[Fuc(a1-3)]GlcNAc
# Procedure, shortened: as §1
# [5] = biological target: Neu5Ac(a2-3)Gal(b1-4)[Fuc(a1-3)]GlcNAc(b1-3)GalNAc
# Procedure, shortened: as §1
# [6] = biological target: Neu5Ac(a2-3)Gal(b1-4)[Fuc(a1-3)]GlcNAc(b1-6)[Gal(b1-3)]GalNAc
# Procedure, shortened: as §1
# [7] = biological target: Neu5Ac(a2-3)Gal(b1-4)[Fuc(a1-3)]GlcNAc(b1-6)[Neu5Ac(a2-3)Gal(b1-3)]GalNAc
# Procedure, shortened: as §1
# [8] = biological target: Neu5Ac(a2-3)Gal(b1-4)[Fuc(a1-3)]GlcNAc6S
# Procedure, shortened: as §1
# [9] = biological target: Neu5Ac(a2-3)Gal6S(b1-4)GlcNAc
# Procedure, shortened: as §1
# [10] = biological target: Neu5Ac(a2-3)Gal6S(b1-4)[Fuc(a1-3)]GlcNAc
# Procedure, shortened: as §1
# Neu5Ac(a2-3)GalNAc = biological target: Neu5Ac(a2-3)GalNAc
# Procedure, shortened: as §1
# [11] = biological target: Neu5Ac(a2-3)GalNAc(b1-4)GlcNAc
# Procedure, shortened: as §1
# [12] = biological target: Neu5Ac(a2-3)[GalNAc(b1-4)]Gal(b1-4)Glc
# Procedure, shortened: as §1
# [13] = biological target: Neu5Ac(a2-3)[GalNAc(b1-4)]Gal(b1-4)GlcNAc
# Procedure, shortened: as §1
# [14] = biological target: Neu5Ac(a2-3)[GalNAc(b1-4)]Gal(b1-4)GlcNAc(b1-3)GalNAc
# Procedure, shortened: as §1
# [15] = biological target: Neu5Ac(a2-3)[Neu5Ac(a2-6)]GalNAc
# Procedure, shortened: as §1
# Neu5Ac(a2-6)Gal = biological target: Neu5Ac(a2-6)Gal
# Procedure, shortened: as §1
# [16] = biological target: Neu5Ac(a2-6)Gal(b1-3)GlcNAc(b1-3)[Gal(b1-4)GlcNAc(b1-6)]Gal(b1-4)Glc
# Procedure, shortened: as §1
# Neu5Ac(a2-6)Gal(b1-4)Glc = biological target: Neu5Ac(a2-6)Gal(b1-4)Glc
# Procedure, shortened: as §1
# [17] = biological target: Neu5Ac(a2-6)Gal(b1-4)GlcNAc
# Procedure, shortened: as §1
# [18] = biological target: Neu5Ac(a2-6)Gal(b1-4)GlcNAc(b1-2)Man(a1-3)Man(b1-4)GlcNAc(b1-4)GlcNAc
# Procedure, shortened: as §1
# [19] = biological target: Neu5Ac(a2-6)Gal(b1-4)GlcNAc(b1-2)Man(a1-3)[Gal(b1-4)GlcNAc(b1-2)Man(a1-6)]Man(b1-4)GlcNAc(b1-4)GlcNAc
# Procedure, shortened: as §1
# [20] = biological target: Neu5Ac(a2-6)Gal(b1-4)GlcNAc(b1-2)Man(a1-3)[GlcNAc(b1-2)Man(a1-6)]Man(b1-4)GlcNAc(b1-4)GlcNAc
# Procedure, shortened: as §1
# [21] = biological target: Neu5Ac(a2-6)Gal(b1-4)GlcNAc(b1-2)Man(a1-3)[GlcNAc(b1-2)Man(b1-4)GlcNAc(b1-2)Man(a1-6)]Man(b1-4)GlcNAc(b1-4)GlcNAc
# Procedure, shortened: as §1
# [22] = biological target: Neu5Ac(a2-6)Gal(b1-4)GlcNAc(b1-2)Man(a1-3)[Man(a1-6)]Man(b1-4)GlcNAc(b1-4)GlcNAc
# Procedure, shortened: as §1
# [23] = biological target: Neu5Ac(a2-6)Gal(b1-4)GlcNAc(b1-2)Man(a1-3)[Neu5Ac(a2-6)Gal(b1-4)GlcNAc(b1-2)Man(a1-6)]Man(b1-4)GlcNAc(b1-4)GlcNAc
# Procedure, shortened: as §1
# [24] = biological target: Neu5Ac(a2-6)Gal(b1-4)GlcNAc(b1-2)Man(a1-6)Man(b1-4)GlcNAc(b1-4)GlcNAc
# Procedure, shortened: as §1
# [25] = biological target: Neu5Ac(a2-6)Gal(b1-4)GlcNAc(b1-2)Man(a1-6)[Gal(b1-4)GlcNAc(b1-2)Man(a1-3)]Man(b1-4)GlcNAc(b1-4)GlcNAc
# Procedure, shortened: as §1
# [26] = biological target: Neu5Ac(a2-6)Gal(b1-4)GlcNAc(b1-2)Man(a1-6)[GlcNAc(b1-2)Man(a1-3)]Man(b1-4)GlcNAc(b1-4)GlcNAc
# Procedure, shortened: as §1
# [27] = biological target: Neu5Ac(a2-6)Gal(b1-4)GlcNAc(b1-2)Man(a1-6)[Man(a1-3)]Man(b1-4)GlcNAc(b1-4)GlcNAc
# Procedure, shortened: as §1
# [28] = biological target: Neu5Ac(a2-6)Gal(b1-4)GlcNAc(b1-3)Gal(b1-3)GlcNAc
# Procedure, shortened: as §1
# [29] = biological target: Neu5Ac(a2-6)Gal(b1-4)GlcNAc(b1-3)Gal(b1-4)GlcNAc
# Procedure, shortened: as §1
# [30] = biological target: Neu5Ac(a2-6)Gal(b1-4)GlcNAc(b1-3)Gal(b1-4)GlcNAc(b1-3)Gal(b1-4)GlcNAc
# Procedure, shortened: as §1
# [31] = biological target: Neu5Ac(a2-6)Gal(b1-4)GlcNAc(b1-3)Gal(b1-4)[Fuc(a1-3)]GlcNAc(b1-3)Gal(b1-4)[Fuc(a1-3)]GlcNAc
# Procedure, shortened: as §1
# [32] = biological target: Neu5Ac(a2-6)Gal(b1-4)GlcNAc(b1-3)GalNAc
# Procedure, shortened: as §1
# [33] = biological target: Neu5Ac(a2-6)Gal(b1-4)GlcNAc6S
# Procedure, shortened: as §1
# Neu5Ac(a2-6)GalNAc = biological target: Neu5Ac(a2-6)GalNAc
# Procedure, shortened: as §1
# [34] = biological target: Neu5Ac(a2-6)GalNAc(b1-4)GlcNAc
# Procedure, shortened: as §1
# [35] = biological target: Neu5Ac(a2-6)GlcNAc(b1-4)GlcNAc
# Procedure, shortened: as §1
# [36] = biological target: Neu5Ac(a2-6)GlcNAc(b1-4)GlcNAc(b1-4)GlcNAc
# Procedure, shortened: as §1
# Neu5Ac(a2-8)Neu5Ac = biological target: Neu5Ac(a2-8)Neu5Ac
# Procedure, shortened: as §1
# [37] = biological target: Neu5Ac(a2-8)Neu5Ac(a2-3)Gal(b1-4)Glc
# Procedure, shortened: as §1
# [38] = biological target: Neu5Ac(a2-8)Neu5Ac(a2-3)[Gal(b1-3)GalNAc(b1-4)]Gal(b1-4)Glc
# Procedure, shortened: as §1
# [39] = biological target: Neu5Ac(a2-8)Neu5Ac(a2-3)[GalNAc(b1-4)]Gal(b1-4)Glc
# Procedure, shortened: as §1
# [40] = biological target: Neu5Ac(a2-8)Neu5Ac(a2-8)Neu5Ac
# Procedure, shortened: as §1
# [41] = biological target: Neu5Ac(a2-8)Neu5Ac(a2-8)Neu5Ac(a2-3)Gal(b1-4)Glc
# Procedure, shortened: as §1
# [42] = biological target: Neu5Ac(a2-8)Neu5Ac(a2-8)Neu5Ac(a2-3)[GalNAc(b1-4)]Gal(b1-4)Glc
# Procedure, shortened: as §1
# [43] = biological target: Neu5Ac(a2-8)Neu5Ac(a2-8)Neu5Ac(a2-8)Neu5Ac(a2-3)[GalNAc(b1-4)]Gal(b1-4)Glc
# Procedure, shortened: as §1
# [44] = biological target: Neu5Ac(b2-6)Gal(b1-4)GlcNAc
# Procedure, shortened: as §1
# Neu5Ac(b2-6)GalNAc = biological target: Neu5Ac(b2-6)GalNAc
# Procedure, shortened: as §1
# [45] = biological target: Neu5Ac9Ac(a2-3)Gal(b1-3)GlcNAc
# Procedure, shortened: as §1
# [46] = biological target: Neu5Ac9Ac(a2-3)Gal(b1-4)GlcNAc
# Procedure, shortened: as §1
# [47] = biological target: Neu5Ac9Ac(a2-6)Gal(b1-4)GlcNAc
# Procedure, shortened: as §1
# [48] = biological target: Neu5Gc(a2-3)Gal(b1-3)GlcNAc
# Procedure, shortened: as §1
# [49] = biological target: Neu5Gc(a2-3)Gal(b1-3)[Fuc(a1-4)]GlcNAc
# Procedure, shortened: as §1
# Neu5Gc(a2-3)Gal(b1-4)Glc = biological target: Neu5Gc(a2-3)Gal(b1-4)Glc
# Procedure, shortened: as §1
# [50] = biological target: Neu5Gc(a2-3)Gal(b1-4)GlcNAc
# Procedure, shortened: as §1
# [51] = biological target: Neu5Gc(a2-3)Gal(b1-4)[Fuc(a1-3)]GlcNAc
# Procedure, shortened: as §1
# [52] = biological target: Neu5Gc(a2-6)Gal(b1-4)GlcNAc
# Procedure, shortened: as §1
# Neu5Gc(a2-6)GalNAc = biological target: Neu5Gc(a2-6)GalNAc
# Procedure, shortened: as §1
# [53] = biological target: Neu5Gc(b2-6)Gal(b1-4)GlcNAc
# Procedure, shortened: as §1
binder,measurement,setting,value
"PILRa (Homo sapiens), Q9UKJ1 (protein) MGRPLLLPLLPLLLPPAFLQPSGSTGSGPSYLYGVTQPKHLSASMGGSVEIPFSFYYPWELATAPDVRISWRRGHFHRQSFYSTRPPSIHKDYVNRLFLNWTEGQKSGFLRISNLQKQDQSVYFCRVELDTRSSGRQQWQSIEGTKLSITQAVTTTTQRPSSMTTTWRLSSTTTTTGLRVTQGKRRSDSWHISLETAVGVAVAVTVLGIMILGLICLLRWRRRKGQQRTKATTPAREPFQNTEEPYENIRNEGQNTDPKLNPKDDGIVYASLALSSSTSPRAPPSHRPLKSPQNETLYSVLKA",glycan array binding signal (z-score),[1],0.098
same,glycan array binding signal (z-score),[2],-0.322
same,glycan array binding signal (z-score),[3],-0.388
same,glycan array binding signal (z-score),[4],-0.295
same,glycan array binding signal (z-score),[5],0.415
same,glycan array binding signal (z-score),[6],0.986
same,glycan array binding signal (z-score),[7],0.077
same,glycan array binding signal (z-score),[8],-0.092
same,glycan array binding signal (z-score),[9],-0.323
same,glycan array binding signal (z-score),[10],-0.282
same,glycan array binding signal (z-score),Neu5Ac(a2-3)GalNAc,-0.108
same,glycan array binding signal (z-score),[11],-0.314
same,glycan array binding signal (z-score),[12],-0.3
same,glycan array binding signal (z-score),[13],-0.374
same,glycan array binding signal (z-score),[14],-0.248
same,glycan array binding signal (z-score),[15],0.024
same,glycan array binding signal (z-score),Neu5Ac(a2-6)Gal,1.87
same,glycan array binding signal (z-score),[16],-0.158
same,glycan array binding signal (z-score),Neu5Ac(a2-6)Gal(b1-4)Glc,-0.173
same,glycan array binding signal (z-score),[17],-0.041
same,glycan array binding signal (z-score),[18],-0.527
same,glycan array binding signal (z-score),[19],-0.289
same,glycan array binding signal (z-score),[20],-0.235
same,glycan array binding signal (z-score),[21],-0.32
same,glycan array binding signal (z-score),[22],-0.177
same,glycan array binding signal (z-score),[23],-0.134
same,glycan array binding signal (z-score),[24],-0.323
same,glycan array binding signal (z-score),[25],1.32
same,glycan array binding signal (z-score),[26],-0.3
same,glycan array binding signal (z-score),[27],-0.163
same,glycan array binding signal (z-score),[28],-0.266
same,glycan array binding signal (z-score),[29],-0.365
same,glycan array binding signal (z-score),[30],-0.235
same,glycan array binding signal (z-score),[31],-0.204
same,glycan array binding signal (z-score),[32],0.136
same,glycan array binding signal (z-score),[33],1.63
same,glycan array binding signal (z-score),Neu5Ac(a2-6)GalNAc,-0.093
same,glycan array binding signal (z-score),[34],0.093
same,glycan array binding signal (z-score),[35],0.054
same,glycan array binding signal (z-score),[36],-0.165
same,glycan array binding signal (z-score),Neu5Ac(a2-8)Neu5Ac,0.348
same,glycan array binding signal (z-score),[37],-0.133
same,glycan array binding signal (z-score),[38],-0.253
same,glycan array binding signal (z-score),[39],-0.257
same,glycan array binding signal (z-score),[40],-0.3
same,glycan array binding signal (z-score),[41],-0.308
same,glycan array binding signal (z-score),[42],-0.242
same,glycan array binding signal (z-score),[43],-0.297
same,glycan array binding signal (z-score),[44],-0.16
same,glycan array binding signal (z-score),Neu5Ac(b2-6)GalNAc,0.231
same,glycan array binding signal (z-score),[45],-0.29
same,glycan array binding signal (z-score),[46],-0.356
same,glycan array binding signal (z-score),[47],-0.086
same,glycan array binding signal (z-score),[48],-0.369
same,glycan array binding signal (z-score),[49],-0.37
same,glycan array binding signal (z-score),Neu5Gc(a2-3)Gal(b1-4)Glc,-0.222
same,glycan array binding signal (z-score),[50],-0.246
same,glycan array binding signal (z-score),[51],-0.343
same,glycan array binding signal (z-score),[52],-0.289
same,glycan array binding signal (z-score),Neu5Gc(a2-6)GalNAc,0.02
same,glycan array binding signal (z-score),[53],-0.275
